The source gives no read counts; variants with many changes may rest on few reads.
B1: LINE1-full (parent)
chain: UACGUAGGUGGUUUUCCCCUGAUAGUGCUAAGGGGGCCUGGAAGUUUGGACUGGGCAGAGCUCAACACAGCGUGGCAAAGUGGCUGUGGCUAGACUGCCUCUCUGGAUUCCUCGUCACUCAGCAGGGCAUCUCUGAGAGAAAUGCC

Variants of: B1
Assay: self-cleavage, relative activity (ratio to wild type); higher = more cleavage; in vitro, sequencing; the parent is a self-cleaving ribozyme

Variant | self-cleavage
UACGUAGGUGGUUUUCCCCAGAUUGUGCUAAGGGGGCCUGGAAGCUUGGACUGGGCAGAGCUCAACACAGAGUGGCAAAGUGGCUGUGGCUAGACUGCCUCUCUGGAUUCCUCGUCACUCAGCAGGGCAUCUCUGAGGGAAAUGCC [U20A A24U U45C C71A A138G] | 0.34
UACGUAGGUGGUUUUCCCCAGUUGGUGCUAAGGGGGCCUGGAAGUUUGGACUGGGCAGAGAUCGACACAGCGUGGCAAAGUGGCUGUGGCUAGACUGCCUCUCUGGAUUCCUCGUCGCUCAGCAGGGCAUCUCUGAGAGAGGUGCC [U20A A22U A24G C61A A64G A117G A141G A142G] | 0.15
UACGUAGGUGGUUUUCCCCAGGUAGUGCUAAGGGGGCCUGGAAGUUUGGGCUGGGCAGAGCUCAACACAGCGUGGCAAAGUGGCUGUGGCUAGACCGCCUCUCUGGAUUCCUCGUCACUCAGCAGGGCAUCUCUGAGAGAAAUGCC [U20A A22G A50G U96C] | 0.22
UACGUAGGUGGUUUUCCCUUGAUAGUGCUAAGGGGGCCCGGAAGCUUGGACUGGGCAGAGCUCUACACAGCGUGGCAAAGUGGCUGCGGCUAGACUGCCUCUCUGGAUUCCUCGUCACUCAGCAGGGCAUCUCUGGGAGAAAUGCC [C19U U39C U45C A64U U87C A136G] | 0.09
UACGUAGGUGGUUUUCCCCAGAUAGUGCUUAGGGGGCCUGGAAGUUUGGACUGGGCAGAGCUCAACACAGCGUGGCAAUGUGGCUGUGGCUAGACUGCCUCUCUGGACUCCUCGUCACUCGGCAGGGCAUCUCUGAGAGAAAUGCC [U20A A30U A79U U108C A121G] | 0
UACGUAGGUGGUUUUCCCCAGAUUGUGCUAAGGGGGCCUGGAAGUUUGGUCUGGGCAGAGCUCAACGCAGCGUGGCAAAGUGGCUGUGGCUAGACUGCCUCUCUGGAUUCCUCGUCACUCAGCAGGGCAUCUCUGAGAGAAAUGCC [U20A A24U A50U A67G] | 0.35
UACGUAGGUGGUUUUCCCUUGAUAGUGCUAAGGGGGCCUGGAAGUUUGGACUGGGCAGAGCUCAACACAGCGCGGCAAAGUGGCUGUGGCUAGACUGCCUCUCUGGAUUCCUCGUCACUCAGCAGGGCAUCCCUGAGAGAAAUGCC [C19U U73C U132C] | 2.18
UACGUAGGUGGUUUUCCCUUGAUAGUGCUAAGGGGGCCUGGAAGUUUGGACUGGGCAGAGCUCAACACAGCGUGGCAAAGUGGCUGUGGCUAGACUCCCUCUCUGGAUUCCUCGUCACUCAGCAGGGCAUCUCUGAGAGAAACGCC [C19U G97C U143C] | 0.52
UACGUAGGUGGUUUUCCCUUGAUAGUGCUAAGGGGGCCUGGAAGUUUGGACUGGGCAGAGCUCAACACAGCGUGGCAAAGCGGCUGUGGCUAGACUGCCUCUCUGGAUUCCUCGUCACUCAGCAGGGCAUCUCUGAGGGAAAUGCC [C19U U81C A138G] | 1.8
UACGUAGGUGGUUUUCCCCAGAUAGUGCUUAGGGGGCCUGGAAGUUUGGACUGGGCAGAGCUCAACACAGCGUGGCAAAGUGGCUGUGGCUAGACUGCCUCUCUGGAUUCCUCGUCACUCAACAGGGCAUCUCUGAGAGAAAUGCC [U20A A30U G122A] | 1.29
UACGUAGGUGGUUUUCCCUUGAUAGUGCUAAGGGUGCCUGGAAGUUUGGACUGGGCAGAGCUCAACACAGCGUGGCAAAGUGGCUGAGGCUAGACUGCCUCUCUGGACUCCUCGUCACACAGCAGGGCAUUUCUGAGAGAAAAGCC [C19U G35U U87A U108C U119A C131U U143A] | 0.09
UACGUAGGUGGUUUUCCCUUGAUAGUGCUAAGGGGGCCUGGAAGUUAGGACCGGGCAGAGCUCAACACAGCGAGGCAAAGUGGCUGUGGCUAGACUGCCUCUCUGGGUUCCUCGUCACUCAGCAGGGCAUCUCUGAGAGAAAUGCC [C19U U47A U52C U73A A107G] | 0.54
UACGUAGGUGGUUUUCCCUUGAUAGUGCUAAGGGGGCCUGGAAGUUUGGACUGGGCAGAGCUCAACACAGCGUAGCAAAGUGGCUGUGGCUAGACUGCCUCUCUGGAUUCCUCGUCACUCAGCAGGGCUUCUCUGAGAGAAAUGCC [C19U G74A A129U] | 0.93
UACGUAGGUGGUUUUCCCUUGAUAGUGCUAAGGGGGCCCGGAAGUUUGGACCGGGCAGAGCUCAACGCAGCGUGGCAAAGUGGCUGUGGCUAGACUGCCUCUCUGGAUUCCUCGUCACUCAGCAGGGCAACUCUAAGAGAAAUGCC [C19U U39C U52C A67G U130A G135A] | 0
UACGUAGGUGGUUUUCCCUUGAUAGUGCUAAGGGGGCCUGGAAGUUUGGACUGGGCAGAGCUCAACACAGCGUGGCAAAAUGGCUGUGGCUGGACUGCCUCUCUGGAUUCCUCGUCACUCAGCAGGGCAUCUCUGAGAGAAAUGCC [C19U G80A A92G] | 0.06
UACGUAGGUGGUUUUCCCUUGAUAGCGCUAAGGGGGCCUGGAAGUUUGGACUGGGCAGAGCUCAACGCAGCGUGGCAAAGUGGCUGUGGCUAGACUGCCUCUCUGGAUUCCUCGUCACUCAGCAGGGCAUCUCUGAGAGAAAUGCC [C19U U26C A67G] | 0.29
UACGUAGGUGGUUUUCCCCAGAUAGUGCUACGGGGGCCUGGAAGUUUGGACUGGGCAGAGCUCAACACAGCGUGGCAAAGUGGCUGUGGCUAGACUGCCUCCCUGGAUUCCUCGUCACUCAGCAGGGCAUCUCUGAGAGAAAUGCC [U20A A31C U102C] | 1.62
UACGUAGGUGGUUUUCCCUUGAUAGUGCUAAGGGGGCCUGGAAGUCUGGACUGGGCAGAGCACAACACAGCGUGGCAAAGUGGCUGUGGCUAGACUGCCUCUCUGGAUUCCUCGUCACGCAGCAGGGCACCUCUGAGAGAAAUGCC [C19U U46C U62A U119G U130C] | 0
UACGUAGGUGGUUUUCCCCAGAUAGUGCUGAGGGGGCCUGGAAGUUUGGACUGGGCAGAGCUCAACACAGCGUGGCAAAGUGGCUGCGGCUAGACUGCCUCUCCGGAUUCCUCGUCACUCAGCAGGGCAUCUCUGAGAGAAAUGCC [U20A A30G U87C U104C] | 0.97
UACGUAGGUGGUUUUCCCUUGAUAGUGCUAAGGGGGCCUGGAAGUUUGGACUGGGCAGAGCUCAACACAGCGUGGCAAAGUGGCUGUGGCUAGACCGCCUCUCUGGGUUCCUCGUCACUAAGCAGGGCAUCUCUGAGGGAUAUGCC [C19U U96C A107G C120A A138G A141U] | 0

— the RNAGym collection of RNA variant scans (doi:10.7554/elife.90254)
